± gives the standard deviation of the averaged measurements. Over roughly 33,000 sequences, “E-score (dimensionless, -0.5 to 0.5)” has its median near -0.049; the highest 2% begin near 0.37. The list shows a part of the results.
Tested on: T1, PmTbr T-box DNA-binding domain (GST fusion)
T1 sequence: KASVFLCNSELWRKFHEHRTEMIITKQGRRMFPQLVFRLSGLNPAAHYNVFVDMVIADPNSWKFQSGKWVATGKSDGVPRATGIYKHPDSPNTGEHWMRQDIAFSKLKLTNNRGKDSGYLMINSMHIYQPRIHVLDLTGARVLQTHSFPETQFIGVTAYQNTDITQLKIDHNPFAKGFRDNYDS
Assay: PBM E-score of 8-mer (E-score (dimensionless, -0.5 to 0.5)); Tbr is Tbrain of the sea star Patiria miniata (Pm) or the sea urchin Strongylocentrotus purpuratus (Sp); higher = stronger binding preference; most listed sequences are background and not binding sites
Conditions: the construct has about 5 more residues each side
Summary of the method: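 Primer extension turned Universal Agilent oligonucleotide arrays double-stranded. They were incubated with 200 nM protein in PBS (pH 7.5); the protein was a GST-fused Tbr T-box DNA-binding domain expressed in BL21 E. coli at 20 °C and purified on glutathione. Every ungapped 8-mer was scored from the scanned, quantified probe intensities, and the Universal PBM Analysis Suite gave each an enrichment E-score averaged over duplicate arrays.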

Row | Sequence | PBM E-score of 8-mer
1 | ACTGGGTA | -0.123 ± 0.03
2 | AGGGCAGG | -0.233 ± 0.013
3 | CGGGAGGA | -0.138 ± 0.059
4 | GATGGCGA | 0.1142 ± 0.00067
5 | AGAATACA | -0.00101 ± 0.021
6 | GAGACCAA | 0.197 ± 0.013
7 | CAATGACA | 0.139 ± 0.02
8 | CTACAGCA | -0.187 ± 0.053
9 | GATCTTCA | -0.0183 ± 0.042
10 | ACTAAAAA | -0.0935 ± 0.077
11 | GCCTTTTA | -0.114 ± 0.025
12 | AATTAAGA | -0.296 ± 0.035
13 | CGTTCTAG | -0.057 ± 0.034
14 | CTAGACAG | -0.0994 ± 0.099
15 | ACTCCCAA | -0.185 ± 0.036
16 | CTCGAAAG | -0.0414 ± 0.0042
17 | ACTAGTAC | -0.0361 ± 0.05
18 | CGATCACA | 0.3532 ± 0.0012
19 | GAGACATA | -0.0845 ± 0.0094
20 | GCATTCAA | -0.148 ± 0.016
21 | CCCTAATA | -0.219 ± 0.027
22 | GCTGTTGA | 0.0473 ± 0.023
23 | GTGTGCAA | 0.329 ± 0.0035
24 | ACGATGAG | -0.0431 ± 0.029
25 | CGGACGCA | -0.0901 ± 0.091

Row | Sequence | PBM E-score of 8-mer
26 | ATATTACG | -0.166 ± 0.025
27 | CCACCCCA | 0.129 ± 0.089
28 | CATAAGTA | -0.00558 ± 0.019
29 | AATGGTAA | -0.0591 ± 0.045
30 | CAAACTGA | 0.012 ± 0.033
31 | CGCCTGAG | 0.0681 ± 0.047
32 | GAAATAAA | 0.0685 ± 0.061
33 | ACACACCT | 0.445 ± 0.0069
34 | CGACCGCG | 0.128 ± 0.061
35 | GCACGGCC | 0.0764 ± 0.06
36 | ATGGGACA | -0.11 ± 0.042
37 | CATTAGAA | -0.14215 ± 0.00011
38 | ACTTACTC | 0.165 ± 0.0043
39 | ACTATGAT | -0.15 ± 0.0073
40 | ACATTAGC | 0.117 ± 0.022
41 | CGCCTCGC | 0.273 ± 0.0056
42 | CGCCCGTA | -0.166 ± 0.022
43 | AATGATCG | -0.0804 ± 0.013
44 | ATTTATAG | -0.213 ± 0.084
45 | ACCACGAG | -0.0449 ± 0.049
46 | AGCTTGTC | 0.0667 ± 0.021
47 | ACTGTATA | -0.117 ± 0.021
48 | CTAGCGTC | 0.0113 ± 0.051
49 | AGTGATCG | 0.0267 ± 0.044
50 | ATGAACGG | -0.0998 ± 0.028

Row | Sequence | PBM E-score of 8-mer
51 | GTATAGAA | -0.151 ± 0.0043
52 | CAAAGAAC | -0.0272 ± 0.038
53 | ACCTCAAC | -0.0545 ± 0.07
54 | CCATCAGA | -0.268 ± 0.016
55 | CCCTCAAG | 0.0558 ± 0.0097
56 | AGGATCAC | 0.0241 ± 0.023
57 | CTGACGTA | 0.0494 ± 0.022
58 | CTCGGTGA | 0.0383 ± 0.022
59 | CCCTGACC | -0.2 ± 0.064
60 | CACCACAG | 0.131 ± 0.004
61 | ACCAAACA | 0.174 ± 0.037
62 | GAGAGATA | -0.0805 ± 0.045
63 | CCTACAAG | -0.206 ± 0.02
64 | ATGATAGA | -0.19 ± 0.0059
65 | CGACTCTA | 0.0869 ± 0.0033
66 | ACAGCCCC | -0.143 ± 0.055
67 | GCGCAGAC | 0.0469 ± 0.02
68 | CTCCCGAC | -0.00494 ± 0.06
69 | AAGGCTTC | -0.203 ± 0.044
70 | ACGCGATG | 0.00386 ± 0.015
71 | CCAGAAGA | -0.263 ± 0.019
72 | CCTTTCAA | -0.195 ± 0.072
73 | CGGTTCAG | -0.0948 ± 0.085
74 | CAGAAATG | -0.107 ± 0.046
75 | GGGTGAGA | 0.406 ± 0.009

Row | Sequence | PBM E-score of 8-mer
76 | AAGTCGCG | 0.264 ± 0.023
77 | AACGAGCG | -0.0477 ± 0.036
78 | AATCTGGC | -0.0204 ± 0.028
79 | GATGCTCA | -0.0218 ± 0.063
80 | ATTCTGCG | 0.0271 ± 0.014
81 | CACCTGAA | 0.312 ± 0.0079
82 | CTGCTTTA | 0.0965 ± 0.035
83 | GGACAGTA | -0.175 ± 0.033
84 | CTACCGGA | -0.1 ± 0.11
85 | TCGGTTCA | -0.15 ± 0.091
86 | CACCTATC | 0.399 ± 0.0088
87 | GCTCGACC | -0.0431 ± 0.0074
88 | TAAAATAA | -0.0133 ± 0.044
89 | CGGACTTC | -0.059 ± 0.0073
90 | ACAGTAAT | 0.162 ± 0.038
91 | CTGGTGCC | 0.128 ± 0.018
92 | CGTTGAGC | -0.178 ± 0.06
93 | ACGCCCGT | 0.0279 ± 0.084
94 | TGGACGAA | -0.00136 ± 0.1
95 | ATACCATA | -0.0746 ± 0.076
96 | AAATAACT | -0.0561 ± 0.07
97 | CATTAAGG | -0.136 ± 0.13
98 | CGACACCG | 0.273 ± 0.033
99 | AGCTATGG | -0.258 ± 0.016
100 | TACGTCCA | -0.173 ± 0.0083

Row | Sequence | PBM E-score of 8-mer
101 | ACGGCGAA | 0.0349 ± 0.045
102 | ATCTGTAC | -0.039 ± 0.0076
103 | CATGAAAC | -0.17 ± 0.039
104 | CCCTGGTA | 0.00846 ± 0.025
105 | GTCGACGA | 0.155 ± 0.015
106 | CAACCTAA | 0.0476 ± 0.071
107 | GAAAGGCA | -0.108 ± 0.0073
108 | GGAGTGGA | -0.0457 ± 0.03
109 | TAGGGCAA | -0.335 ± 0.015
110 | CAGTCATA | -0.0954 ± 0.04
111 | GATCGACC | -0.0814 ± 0.0024
112 | ACCCGACC | -0.08196 ± 0.00028
113 | CCGCTTGA | -0.034 ± 0.026
114 | GCGTGGCA | 0.0685 ± 0.054
115 | AACAGGCG | 0.1205 ± 0.00094
116 | ATAATGTA | -0.213 ± 0.04
117 | CAGTGTTA | 0.322 ± 0.0036
118 | CAGCTATG | 0.0981 ± 0.028
119 | CATGGACA | 0.0711 ± 0.019
120 | GTCGCGCA | 0.199 ± 0.039
121 | CTACCCAA | -0.175 ± 0.086
122 | CATGTCCA | -0.151 ± 0.064
123 | CTACAAAG | -0.214 ± 0.01
124 | GATCAGAA | -0.138 ± 0.043
125 | AGTGACAG | 0.357 ± 0.0084

Row | Sequence | PBM E-score of 8-mer
126 | CATTCAGC | -0.161 ± 0.0035
127 | AAGGGCAA | -0.182 ± 0.04
128 | ATACCCCG | -0.1527 ± 0.00053
129 | ACTCTACG | 0.0543 ± 0.0073
130 | ACAGCGTA | -0.0359 ± 0.026
131 | GAAGGACA | -0.0775 ± 0.028
132 | GGAAACCA | -0.1389 ± 0.00081
133 | ACTTGTCG | 0.30022 ± 4.9e-05
134 | CAATCAAC | -0.0642 ± 0.048
135 | GGCCTGAA | -0.0982 ± 0.032
136 | AGTTTCTC | 0.11 ± 0.029
137 | AAATGTAA | 0.0753 ± 0.021
138 | ACCATTTC | -0.0217 ± 0.073
139 | CCCGTAAG | -0.0921 ± 0.11
140 | AACCCATC | -0.242 ± 0.016
141 | ATGGACAT | -0.195 ± 0.025
142 | CCTCTTTA | -0.0767 ± 0.023
143 | GTAGTGTA | 0.00343 ± 0.048
144 | GCTAAAGC | -0.0616 ± 0.096
145 | CCTAGATC | -0.0223 ± 0.021
146 | ATTATTGG | -0.0933 ± 0.025
147 | ACTCTGCA | 0.00895 ± 0.053
148 | CGTACAGC | -0.0541 ± 0.021
149 | GCGAGCCA | -0.00686 ± 0.019
150 | CAGATCGG | -0.0439 ± 0.039

Row | Sequence | PBM E-score of 8-mer
151 | ATCACCTG | 0.379 ± 0.019
152 | TAAGTGAA | -0.101 ± 0.1
153 | CGCCACCC | 0.204 ± 0.06
154 | GGCAAGAC | -0.0607 ± 0.05
155 | GACCCAAA | -0.097 ± 0.012
156 | GTTATTCA | -0.231 ± 0.022
157 | ATGCACTA | -0.173 ± 0.11
158 | AGCGATAT | 0.115 ± 0.019
159 | GCCCTCCC | -0.251 ± 0.038
160 | CCAATTGA | -0.211 ± 0.034
161 | CAAAATAC | -0.134 ± 0.13
162 | ACGCACTC | 0.165 ± 0.016
163 | AGTAGCAT | -0.127 ± 0.067
164 | AAACTTGA | -0.0413 ± 0.01
165 | AAGACTCA | 0.119 ± 0.019
166 | AGTTGCAA | 0.0923 ± 0.04
167 | GCCCCCCA | -0.261 ± 0.042
168 | ATGCTGCA | -0.1863 ± 0.0017
169 | ACTTTTCT | 0.0687 ± 0.099
170 | GCTACAGC | -0.2 ± 0.12
171 | ACTGCCGA | -0.0354 ± 0.01
172 | CACACAAC | 0.279 ± 0.035

From the supplement of paper PMC4166925
